Experimental data from patent publication US7517874B2 (priority 2007, dated 2009).

These compounds were tested against human CB2 receptor (hCB2) (Homo sapiens, UniProt P34972) (assay: cell-based). Conditions: not given.
Type: cell-based

human CB2 receptor (hCB2), sequence (P34972 whole entry): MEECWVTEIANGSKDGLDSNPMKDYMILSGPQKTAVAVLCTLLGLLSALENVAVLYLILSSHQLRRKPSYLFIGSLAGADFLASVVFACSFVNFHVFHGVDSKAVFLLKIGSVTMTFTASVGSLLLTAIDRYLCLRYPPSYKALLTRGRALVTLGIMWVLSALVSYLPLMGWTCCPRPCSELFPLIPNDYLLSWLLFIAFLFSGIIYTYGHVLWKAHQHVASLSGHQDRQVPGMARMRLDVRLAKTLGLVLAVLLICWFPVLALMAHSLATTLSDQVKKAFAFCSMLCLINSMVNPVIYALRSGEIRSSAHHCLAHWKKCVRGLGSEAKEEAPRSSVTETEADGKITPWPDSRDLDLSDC

Structure (SMILES) | EC50 [µM]
CNC(=O)[C@@H](NC(=O)c1nc(-c2nccs2)n2c1CN(C)CC2)C(C)(C)C [Compound 297, (S)-N-(3,3-dimethyl-1-(methylamino)-1-oxobutan-2-yl)-7-methyl-3-(thiazol-2-yl)-5,6,7,8-tetrahydroimidazo[1,5-a]pyrazine-1-carboxamide] | > 10
CNC(=O)[C@@H](NC(=O)c1nc(C(=O)Nc2ccccc2)n2c1CN(C)CC2)C(C)(C)C [Compound 290, (S)-N1-(3,3-dimethyl-1-(methylamino)-1-oxobutan-2-yl)-7-methyl-N3-phenyl-5,6,7,8-tetrahydroimidazo[1,5-a]pyrazine-1,3-dicarboxamide] | > 10
CNC(=O)[C@@H](NC(=O)c1nc(-c2ccccc2)n2c1CN(S(=O)(=O)c1ccc(C(F)(F)F)cc1)CC2)C(C)(C)C [Compound 107, (S)-N-(3,3-dimethyl-1-(methylamino)-1-oxobutan-2-yl)-3-phenyl-7-(4-(trifluoromethyl)phenylsulfonyl)-5,6,7,8-tetrahydroimidazo[1,5-a]pyrazine-1-carboxamide] | > 10
CNC(=O)[C@@H](NC(=O)c1nc(-c2ccc(S(=O)(=O)N(C)C)cc2)n2c1CN(C)CCC2)C(C)(C)C [Compound 410, (S)-N-(3,3-dimethyl-1-(methylamino)-1-oxobutan-2-yl)-3-(4-(N,N-dimethylsulfamoyl)phenyl)-8-methyl-6,7,8,9-tetrahydro-5H-imidazo[1,5-a][1,4]diazepine-1-carboxamide] | > 10

Same assay, conditions: agonist or inverse agonist at hCB2

Structure (SMILES) | +/− HCB2
CNC(=O)[C@@H](NC(=O)c1nc(-c2ccc(C(F)(F)F)cc2)n2c1CN(C)CCC2)C(C)(C)C [Compound 330, (S)-N-(3,3-dimethyl-1-(methylamino)-1-oxobutan-2-yl)-8-methyl-3-(4-(trifluoromethyl)phenyl)-6,7,8,9-tetrahydro-5H-imidazo[1,5-a][1,4]diazepine-1-carboxamide] | +
CNC(=O)[C@@H](NC(=O)c1nc(/C=C/CN(C)C)n2c1CN(C)CCC2)C(C)(C)C [Compound 513, (S,E)-N-(3,3-dimethyl-1-(methylamino)-1-oxobutan-2-yl)-3-(3-(dimethylamino)prop-1-enyl)-8-methyl-6,7,8,9-tetrahydro-5H-imidazo[1,5-a][1,4]diazepine-1-carboxamide] | +
CCS(=O)(=O)N1CCn2c(-c3ccccc3)nc(C(=O)NC3C4(C)CCC(C4)C3(C)C)c2C1 (stereo not shown) [Compound 112, 7-(ethylsulfonyl)-3-phenyl-N-(1,3,3-trimethylbicyclo[2.2.1]heptan-2-yl)-5,6,7,8-tetrahydroimidazo[1,5-a]pyrazine-1-carboxamide] | +
CN1CCCn2c(-c3ccc(F)c(Cl)c3)nc(C(=O)N[C@H](C(N)=O)C(C)(C)C)c2C1 [Compound 576, (S)-N-(1-amino-3,3-dimethyl-1-oxobutan-2-yl)-3-(3-chloro-4-fluorophenyl)-8-methyl-6,7,8,9-tetrahydro-5H-imidazo[1,5-a][1,4]diazepine-1-carboxamide] | +
C=C(C)c1nc(C(=O)N[C@H](C(=O)NC)C(C)(C)C)c2n1CCN(C)C2 [Compound 267, (S)-N-(3,3-dimethyl-1-(methylamino)-1-oxobutan-2-yl)-7-methyl-3-(prop-1-en-2-yl)-5,6,7,8-tetrahydroimidazo[1,5-a]pyrazine-1-carboxamide] | +
CNC(=O)[C@H](CC(C)(C)C)NC(=O)c1nc(-c2cc(F)c(F)cc2F)n2c1CN(C)CCC2 [Compound 555, (S)-N-(4,4-dimethyl-1-(methylamino)-1-oxopentan-2-yl)-8-methyl-3-(2,4,5-trifluorophenyl)-6,7,8,9-tetrahydro-5H-imidazo[1,5-a][1,4]diazepine-1-carboxamide] | +
CNC(=O)[C@@H](NC(=O)c1nc(-c2ccccc2C(N)=O)n2c1CN(C)CCC2)C(C)(C)C [Compound 431, (S)-3-(2-carbamoylphenyl)-N-(3,3-dimethyl-1-(methylamino)-1-oxobutan-2-yl)-8-methyl-6,7,8,9-tetrahydro-5H-imidazo[1,5-a][1,4]diazepine-1-carboxamide] | +
CNC(=O)[C@@H](NC(=O)c1nc(-c2ccc(F)c(OC)c2)n2c1CN(C)CCC2)C(C)(C)C [Compound 393, (S)-N-(3,3-dimethyl-1-(methylamino)-1-oxobutan-2-yl)-3-(4-fluoro-3-methoxyphenyl)-8-methyl-6,7,8,9-tetrahydro-5H-imidazo[1,5-a][1,4]diazepine-1-carboxamide] | +
CN1CCCn2c(-c3ccc(Cl)cc3F)nc(C(=O)N[C@H](C(=O)N(C)C)C(C)(C)C)c2C1 [Compound 556, (S)-3-(4-chloro-2-fluorophenyl)-N-(1-(dimethylamino)-3,3-dimethyl-1-oxobutan-2-yl)-8-methyl-6,7,8,9-tetrahydro-5H-imidazo[1,5-a][1,4]diazepine-1-carboxamide] | +
CNC(=O)[C@@H](NC(=O)c1nc(-c2ccccc2)n2c1CN(S(=O)(=O)c1ccccc1F)CC2)C(C)(C)C [Compound 98, (S)-N-(3,3-dimethyl-1-(methylamino)-1-oxobutan-2-yl)-7-(2-fluorophenylsulfonyl)-3-phenyl-5,6,7,8-tetrahydroimidazo[1,5-a]pyrazine-1-carboxamide] | −
CNC(=O)[C@@H](NC(=O)c1nc(-c2cccc(OC(F)(F)F)c2)n2c1CN(C)CCC2)C(C)(C)C [Compound 338, (S)-N-(3,3-dimethyl-1-(methylamino)-1-oxobutan-2-yl)-8-methyl-3-(3-(trifluoromethoxy)phenyl)-6,7,8,9-tetrahydro-5H-imidazo[1,5-a][1,4]diazepine-1-carboxamide] | +
CNC(=O)[C@@H](NC(=O)c1nc(-c2ccc(OC(F)(F)F)cc2)n2c1CN(C)CCC2)C(C)(C)C [Compound 339, (S)-N-(3,3-dimethyl-1-(methylamino)-1-oxobutan-2-yl)-8-methyl-3-(4-(trifluoromethoxy)phenyl)-6,7,8,9-tetrahydro-5H-imidazo[1,5-a][1,4]diazepine-1-carboxamide] | +
CNC(=O)[C@@H](NC(=O)c1nc(C(C)=C(C)C)n2c1CN(C)CCC2)C(C)(C)C [Compound 454, (S)-N-(3,3-dimethyl-1-(methylamino)-1-oxobutan-2-yl)-8-methyl-3-(3-methylbut-2-en-2-yl)-6,7,8,9-tetrahydro-5H-imidazo[1,5-a][1,4]diazepine-1-carboxamide] | +
CNC(=O)[C@@H](NC(=O)c1nc(-c2ccc(Cl)cc2)n2c1CNCC2)C(C)(C)C [Compound 9, (S)-3-(4-chlorophenyl)-N-(3,3-dimethyl-1-(methylamino)-1-oxobutan-2-yl)-5,6,7,8-tetrahydroimidazo[1,5-a]pyrazine-1-carboxamide] | +
CC(=O)N1CCn2c(-c3ccccc3)nc(C(=O)NN3CCCCC3)c2C1 [Compound 175, 7-acetyl-3-phenyl-N-(piperidin-1-yl)-5,6,7,8-tetrahydroimidazo[1,5-a]pyrazine-1-carboxamide] | +
